Laboratory results reported in PubChem BioAssay AID504333 (National Center for Advancing Translational Sciences (NCATS), 2011).
The campaign covered roughly 360,000 compounds. About 16,000 (4.4%) were called active. The inconclusive results got no clear call from the source; some entries with a clear call stand among them for comparison. The call rests on the fitted dose curve; in most records, active means well fitted inhibition curve with a large enough effect; inconclusive means small, poorly fitted or top-dose-only effect; inactive means no such curve, though single readings can be large or run the other way. A potency beside an inconclusive call is a rough fit, not a confirmed value.
Further: nearly all actives have a fitted effect of over 60% in size.
Potency means the concentration at half of the fitted maximal effect; tags describe the fitted curve by direction and shape.

Each molecule was assayed against Bromodomain adjacent to zinc finger domain protein 2B (Homo sapiens) (UniProt Q9UIF8) (assay: qHTS Assay for Inhibitors of BAZ2B). Conditions: AlphaScreen BAZ2B-H3K14Ac peptide displacement; series mostly up to 114 µM.
Sequence of UniProt Q9UIF8 (Q9UIF8 whole entry, looked up, the tested form may be a part): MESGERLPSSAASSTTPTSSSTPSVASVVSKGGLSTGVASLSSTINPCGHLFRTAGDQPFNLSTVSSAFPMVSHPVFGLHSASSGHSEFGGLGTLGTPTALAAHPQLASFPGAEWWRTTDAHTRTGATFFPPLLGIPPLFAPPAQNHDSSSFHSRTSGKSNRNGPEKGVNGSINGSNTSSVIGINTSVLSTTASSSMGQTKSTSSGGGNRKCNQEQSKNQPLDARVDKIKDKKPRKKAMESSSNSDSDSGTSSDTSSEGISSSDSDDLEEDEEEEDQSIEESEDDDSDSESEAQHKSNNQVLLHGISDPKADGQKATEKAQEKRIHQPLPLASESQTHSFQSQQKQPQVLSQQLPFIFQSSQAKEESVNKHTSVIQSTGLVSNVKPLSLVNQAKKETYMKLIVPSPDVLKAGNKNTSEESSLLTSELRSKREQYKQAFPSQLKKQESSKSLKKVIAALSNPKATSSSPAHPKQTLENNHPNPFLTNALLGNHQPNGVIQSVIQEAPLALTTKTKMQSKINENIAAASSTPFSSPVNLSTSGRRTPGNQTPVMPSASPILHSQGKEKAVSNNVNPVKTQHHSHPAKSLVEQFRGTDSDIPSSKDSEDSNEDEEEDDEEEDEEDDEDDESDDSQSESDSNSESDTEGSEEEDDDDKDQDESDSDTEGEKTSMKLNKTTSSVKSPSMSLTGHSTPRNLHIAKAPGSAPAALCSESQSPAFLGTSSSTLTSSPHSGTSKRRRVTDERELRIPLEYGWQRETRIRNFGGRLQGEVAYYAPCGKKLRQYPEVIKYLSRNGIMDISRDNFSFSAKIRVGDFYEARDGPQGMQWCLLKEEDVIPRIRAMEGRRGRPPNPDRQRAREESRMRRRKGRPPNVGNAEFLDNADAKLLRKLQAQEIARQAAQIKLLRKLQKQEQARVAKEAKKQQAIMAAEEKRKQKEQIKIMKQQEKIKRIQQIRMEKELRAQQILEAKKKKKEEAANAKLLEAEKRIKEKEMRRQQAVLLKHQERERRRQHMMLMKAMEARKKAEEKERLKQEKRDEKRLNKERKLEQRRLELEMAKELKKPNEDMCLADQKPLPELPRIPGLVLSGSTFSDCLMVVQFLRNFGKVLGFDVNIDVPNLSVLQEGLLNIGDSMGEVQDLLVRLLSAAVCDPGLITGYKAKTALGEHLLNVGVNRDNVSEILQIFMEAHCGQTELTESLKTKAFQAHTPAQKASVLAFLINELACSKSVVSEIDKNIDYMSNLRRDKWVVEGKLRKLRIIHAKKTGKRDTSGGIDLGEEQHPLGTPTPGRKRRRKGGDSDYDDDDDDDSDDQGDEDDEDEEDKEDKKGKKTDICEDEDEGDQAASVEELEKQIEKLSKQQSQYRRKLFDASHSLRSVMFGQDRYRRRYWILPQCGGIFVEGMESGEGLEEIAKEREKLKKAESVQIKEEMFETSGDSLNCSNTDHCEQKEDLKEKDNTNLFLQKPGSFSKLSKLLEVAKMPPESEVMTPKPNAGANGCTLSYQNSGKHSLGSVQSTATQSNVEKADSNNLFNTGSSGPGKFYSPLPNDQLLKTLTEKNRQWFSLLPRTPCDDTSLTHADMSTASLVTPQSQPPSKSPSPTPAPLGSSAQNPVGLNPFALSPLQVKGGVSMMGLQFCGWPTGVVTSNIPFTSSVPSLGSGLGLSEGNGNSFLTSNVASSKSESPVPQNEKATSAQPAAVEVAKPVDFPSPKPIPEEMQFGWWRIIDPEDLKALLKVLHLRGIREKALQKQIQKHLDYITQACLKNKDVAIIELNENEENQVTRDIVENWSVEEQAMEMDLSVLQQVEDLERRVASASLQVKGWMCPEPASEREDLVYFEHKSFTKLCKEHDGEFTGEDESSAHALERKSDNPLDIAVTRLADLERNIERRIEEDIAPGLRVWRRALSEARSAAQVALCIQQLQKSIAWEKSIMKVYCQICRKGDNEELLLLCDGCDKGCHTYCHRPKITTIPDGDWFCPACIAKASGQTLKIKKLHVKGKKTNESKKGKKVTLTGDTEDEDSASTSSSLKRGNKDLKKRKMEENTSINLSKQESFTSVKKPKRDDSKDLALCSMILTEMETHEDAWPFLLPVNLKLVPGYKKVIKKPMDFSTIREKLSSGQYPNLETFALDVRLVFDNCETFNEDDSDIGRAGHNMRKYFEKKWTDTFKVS
Method in brief: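 Multi-concentration screen (max 110 uM) measuring displacement of acetylated histone H3 peptide from BAZ2B by AlphaScreen, using 50 nM protein, 50 nM peptide and 10 ug/mL streptavidin donor plus Ni-chelate acceptor beads.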
`NS(=O)(=O)c1ccc(N=Nc2ccc(O)c3ncccc23)cc1` was tested, and the Potency was active: 3.55 µM. `COc1ccc(S(=O)(=O)NCc2cccn2Cc2cccc(C)c2)cc1OC` was tested, and the Potency was inconclusive: 50.1 µM [inhibitor, partial curve]. In the case of `CCOc1ccc(NC(=O)c2cc3c(=O)n4cccc(C)c4nc3s2)cc1`, the Potency is reported as “inactive”. With `Cc1ccc(O)c(Sc2cc(C)ccc2O)c1` the Potency was inconclusive: 79.4 µM [inhibitor, single point]. For `CCN(C(=O)CSc1nnc(C)n2c1cc1occc12)c1ccccc1`, the Potency was inconclusive: 89.1 µM [inhibitor, single point]. With `C[C@H](NC(=O)N1CCn2c1nc1ccccc12)C(=O)NCc1ccc2c(c1)OCO2` the Potency was inconclusive: 79.4 µM [inhibitor, single point]. With `C=CCNCC#CCOc1ccc(OC)cc1` the Potency was inconclusive: 31.6 µM [inhibitor, single point]. `Cc1nnc(C)c2c(C)n(C(c3ccccc3)c3ccccc3)c(C)c12` was tested, and the Potency was inconclusive: 79.4 µM [inhibitor, single point]. `CCCC(=O)NCc1nc2cccnc2n1Cc1ccc(F)cc1` was tested, and the Potency was “inactive”. `CCOc1ccc(NC(=O)CN(C)CC(=O)Nc2ccccc2SC)cc1OCC` was tested, and the Potency was inconclusive: 89.1 µM [inhibitor, single point]. `O=C(NCc1cccs1)c1ccc(CSc2nc3ccncc3n2Cc2cccc(F)c2)cc1` was tested, and the Potency was “inactive”. For `CCc1cc(C)cc(OCCNC(=O)c2ncn[nH]2)c1`, the Potency was active: 50.1 µM. `CCSc1nnc(NC(=O)CSc2nccn2-c2cccc(C)c2)s1` was tested, and the Potency was inconclusive: 44.7 µM [inhibitor, partial curve]. `CCOC(=O)c1c(-c2ccc(C)cc2)csc1NC(=O)c1cc(=O)c2cc(C)c(C)cc2o1` was tested, and the Potency was “inactive”. `CCOc1ccccc1CN1CCN(CC2=Cc3cc(OC)ccc3OC2)CC1CCO` (stereo unspecified) was tested, and the Potency was inconclusive: 79.4 µM [inhibitor, partial curve]. For `O=C(N/N=C/c1ccc2c(c1)OCO2)c1sc2cc(Cl)ccc2c1Cl`, the Potency was inconclusive: 89.1 µM [inhibitor, single point]. For `Cc1ccc(C(=O)Nc2ccc3c(c2)N(C)C(=O)c2ccccc2S3)cc1F`, the Potency was “inactive”. In the case of `CC(=O)Nc1ccc(C(=O)CSc2nnc(C)o2)cc1`, the Potency is reported as “inactive”. `Cc1cccc(NS(=O)(=O)c2ccc(Cl)cc2)n1` was tested, and the Potency was inconclusive: 100 µM [inhibitor, single point]. With `COc1ccc(C)cc1NC(=O)CN1C(=O)CCc2cc(S(=O)(=O)N3CCOCC3)ccc21` the Potency was inconclusive: 50.1 µM [inhibitor, partial curve]. For `Cc1ccc(N2C(=O)CSC2=S)cc1C`, the Potency was inconclusive: 89.1 µM [inhibitor, partial curve]. For `COC(=O)/C(C#N)=C(/Nc1ccc(F)c(Cl)c1)C(F)(F)F`, the Potency was “inactive”. With `C=Cc1ccc(Cn2c(=O)n(-c3ccccc3C)c(=O)c3c4c(sc32)CN(C(C)=O)CC4)cc1` the Potency was inconclusive: 56.2 µM [inhibitor, single point]. For `O=C(CCS(=O)(=O)c1ccc(Br)cc1)NCc1ccc(F)cc1`, the Potency was active: 39.8 µM. In the case of `COc1ccc(/C=C/C(=O)c2cc(Cl)ccc2O)c(OC)c1`, the Potency is reported as active: 25.1 µM. For `COc1ccc2cc(C(=O)N3CCCC(Nc4ccc(F)cc4)C3)n(C)c2c1` (stereo unspecified), the Potency was inconclusive: 50.1 µM [inhibitor, partial curve]. With `Cc1oc(-c2ccccc2Cl)nc1CN1CCCC1c1ccc(F)cc1` (stereo unspecified) the Potency was “inactive”. In the case of `CC(C)(C)c1nnc(NS(=O)(=O)c2cc(Cl)ccc2Cl)s1`, the Potency is reported as inconclusive: 39.8 µM [inhibitor, single point]. `CC(=O)c1c(C)n(-c2cccc(C)c2)c2ccc(OC(=O)COc3ccccc3)cc12` was tested, and the Potency was “inactive”. In the case of `CC(C)c1ccc(N2C(=O)/C(=C/N(C)C)SC2=S)cc1`, the Potency is reported as active: 44.7 µM. In the case of `O=C(NCCCN1CCCC1)c1ccc2c(c1)N(Cc1ccccc1)CCS2`, the Potency is reported as inconclusive: 44.7 µM [inhibitor, partial curve]. For `CSc1ccccc1C(=O)C1CCCN(C(=O)NC(C)C)C1` (stereo unspecified), the Potency was inconclusive: 89.1 µM [inhibitor, single point]. For `CN(C)CCOC(=O)C12CC3CC(CC(C3)C1)C2`, the Potency was inconclusive: 11.2 µM [inhibitor, single point]. For `COc1cc(NC(=O)CCc2c(C)nc3c(c(C)nn3-c3ccccc3)c2C)cc(OC)c1OC`, the Potency was “inactive”. For `COc1ccccc1CNC(=O)Nc1ccc2c(c1)N(C)C(=O)c1ccccc1S2`, the Potency was inconclusive: 89.1 µM [inhibitor, single point]. For `COc1cc(/C=C2/C(=O)N(c3ccc(C(=O)O)cc3)N=C2C)cc(OC)c1O`, the Potency was inconclusive: 50.1 µM [inhibitor, partial curve]. In the case of `Cc1[nH]c2ccc(OCc3ccccc3)cc2c1CCN1C(=O)OC(C)(C)C1(C)O` (stereo unspecified), the Potency is reported as inconclusive: 44.7 µM [inhibitor, partial curve]. In the case of `COc1ccc(Br)cc1CNC(=O)CCC(=O)N1CCSc2ccccc21`, the Potency is reported as inconclusive: 89.1 µM [inhibitor, single point]. In the case of `CCOc1cc(/C=N/NC(=O)c2ccncc2)ccc1OC(=O)c1ccco1`, the Potency is reported as inconclusive: 79.4 µM [inhibitor, single point]. For `CCCN1C(=O)C(O)(c2c(C)[nH]c3ccccc23)c2ccccc21` (stereo unspecified), the Potency was inconclusive: 79.4 µM [inhibitor, single point]. With `CN1CCC(N(C)S(=O)(=O)c2ccc(NC(=O)COc3ccc(Br)cc3Cl)cc2)CC1` the Potency was inconclusive: 100 µM [inhibitor, single point]. For `Cc1cc(NC(=O)CSc2nnc(-c3ccc(Cl)s3)o2)no1`, the Potency was active: 39.8 µM. In the case of `C(=C\c1ccccc1)/C=N/N1CCN(Cc2ccccc2)CC1`, the Potency is reported as active: 35.5 µM. For `CCn1c(SCC(=O)N2CCCC2)nnc1-c1ccco1`, the Potency was “inactive”. In the case of `C=CCN1C(=O)/C(=C\C(C)=C\c2ccccc2)SC1=S`, the Potency is reported as inconclusive: 7.08 µM [inhibitor, full curve]. For `CCC(Sc1nc2ccc(C)cc2[nH]1)C(=O)O` (stereo unspecified), the Potency was inconclusive: 7.08 µM [inhibitor, single point].
